# Assay results reported in PubChem BioAssay AID485344 (National Center for Advancing Translational Sciences (NCATS), 2010).
# The campaign covered roughly 340,000 compounds. About 6,900 (2%) were called active. Rule as the data show it: active = inhibition above about 30%; inactive = below that, where a call was filed. This is a selection; strong and weak results do not stand in their true shares. Entries without a call were filed so in the source.
# Target: D(2) dopamine receptor (Homo sapiens) (UniProt P14416)
# Test: HTS Assay for Allosteric Antagonists of the Human D2 Dopamine Receptor: Primary Screen for Antagonists; also: 0% is about no effect
# Conditions: HEK293 TREx D2 cells, calcium flux, dopamine EC80; at 10 µM; stronger effect = higher value
# How it was run: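 Dopamine at EC80 is the agonist stimulus; test compounds precede it by 180 s. Calcium flux read kinetically in a force-coupled, inducible HEK293 T-REx D2 cell line.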
# UniProt P14416, sequence (P14416 whole entry, looked up): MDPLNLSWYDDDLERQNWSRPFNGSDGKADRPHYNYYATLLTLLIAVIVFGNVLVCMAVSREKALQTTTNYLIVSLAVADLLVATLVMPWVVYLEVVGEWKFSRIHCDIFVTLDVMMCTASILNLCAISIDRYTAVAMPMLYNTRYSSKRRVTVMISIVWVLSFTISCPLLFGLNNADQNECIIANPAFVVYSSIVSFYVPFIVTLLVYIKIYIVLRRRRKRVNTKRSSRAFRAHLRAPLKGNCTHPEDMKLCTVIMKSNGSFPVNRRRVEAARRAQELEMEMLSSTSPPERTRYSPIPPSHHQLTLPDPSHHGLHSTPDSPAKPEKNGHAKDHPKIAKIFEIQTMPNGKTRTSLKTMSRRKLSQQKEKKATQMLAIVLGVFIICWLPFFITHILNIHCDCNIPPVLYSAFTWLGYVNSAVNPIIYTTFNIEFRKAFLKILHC
row,SMILES,inhibition
1,COC(=O)c1nnn(-c2cccc(C)c2)c1N,1.97%
2,O=C(Nc1ccc(Oc2ccccc2)cc1)c1ccc(F)c(S(=O)(=O)N2CCN(c3cccc(Cl)c3)CC2)c1,-16.2%
3,COc1ccc(-n2c(SCc3nc(-c4ccc(C)cc4)no3)nnc2-c2ccccc2)cc1,-0.808%
4,CC(C)Oc1ccc(CNC(=O)CN2C(=O)CCn3nc(-c4cn(C)c5ccccc45)cc32)cc1,2.63%
5,CCOC(=O)c1ccc(NC(=O)CN(Cc2ccc(C)cc2)S(=O)(=O)c2ccc(C)cc2)cc1,0.97%
6,Cc1cccc(C)c1-n1ncc(C(=O)NCCCN2CCCCC2)c1C1CCN(C(=O)OC(C)(C)C)CC1,-10.9%
7,CCCCOc1ccc(C(=O)NCC(c2ccc(Cl)cc2)N2CCOCC2)cc1 (stereo not given),3.19%
8,COc1ccc(/C=C/C(=O)Nc2ccc(C)cc2)cc1,-13.9%
9,CCN(CC)c1ccc(NC(=O)Cn2ncc3c(C)n(Cc4ccccc4F)c(C)c3c2=O)c(C)c1,4.9%
10,Cc1ccc(NC(=O)Cc2ccc(NC(=O)N3CCCCc4ccccc43)cc2)cc1Cl,4.58%
11,COc1ccccc1C(=O)Nc1ccnn1C1CCN(CCCC2CCCC2)CC1,active: 30.7%
12,COc1cccc(-c2nc(S(=O)(=O)c3ccc(C)cc3)c(N3CCCCCC3)o2)c1,9.47%
13,CC(=O)c1ccc(NC(=O)Nc2ccc3snnc3c2)cc1,-8.06%
14,CCOc1ccc(-c2nnc(SCC(=O)NC3CCCCC3)nc2-c2ccc(OCC)cc2)cc1,6.19%
15,Cc1ccc(C)c(N2CCN(c3nc4ccccc4c(=O)n3-c3ccc(Cl)cc3)CC2)c1,0.535%
16,COc1ccc2c(c1)Cc1sc(NC(=O)c3ccccc3C)nc1-2,-17.6%
17,COc1ccc(NC(=O)Cn2cnc3ccc(S(=O)(=O)N4CCC(C)CC4)cc3c2=O)c(OC)c1,-0.379%
18,COc1cccc(CNC(=O)c2ccc(-c3nc(CS(=O)c4ccccc4)c(C)o3)cc2)c1 (stereo not given),6.19%
19,COc1ccc(C2=C(C)C(N3CCC(C(=O)NCc4ccc(C)o4)CC3)=NS2(=O)=O)cc1,0.549%
20,Cc1ccc(Sc2ccc(N3CCCC(C(=O)Nc4ccc(Br)cc4)C3)nn2)cc1 (stereo not given),11%

row,SMILES,inhibition
1,CCCNC(=O)COC(=O)/C=C/c1ccc(C)o1,active: 30.3%
2,Cc1c(C)n(Cc2ccccc2)c2ccc(C(=O)N3CCN(c4ccccc4F)CC3)cc12,-2.55%
3,CCc1c(C(=O)N/N=C/c2cn[nH]c2-c2ccc(F)cc2)csc1C,active: 71.1%
4,Cc1nc2ccn(Cc3cccnc3)c(=O)c2cc1C(=O)N1CCN(c2ccccc2F)CC1,-4.79%
5,CCNCc1nc2cc(OC)c(OC)cc2c(=O)[nH]1,active: 32.7%
6,COc1ccc(SCc2cc(=O)c3ccc(C)c(C)c3[nH]2)cc1,16.2%
7,O=C(NCCc1ccc(Cl)cc1)c1cc(-c2ccccc2)n[nH]1,-3.96%
8,CCc1ccc(-n2nc(CO)c(C(=O)NC(C)c3ccc(Cl)cc3)n2)cc1 (stereo not given),7.83%
9,O=C(Nc1ccc(C(=O)NCCCN2CCN(c3ccccc3)CC2)cc1)C1=CSCCO1,active: 81.4%
10,COc1cccc(CNC(=O)CN2C(=O)CCc3cc(S(=O)(=O)N4CCOCC4)ccc32)c1,-6.24%
11,COc1ccc(OC)c2sc(N(Cc3cccnc3)C(C)=O)nc12,-22.3%
12,CCOC(=O)N1CCN(Cc2nc3cc(NC(=O)CC)ccc3n2C(C)C)CC1,-4.95%
13,CC(C)c1ccccc1NC(=S)NC1CCN(Cc2ccccc2)CC1,active: 95.7%
14,CCOC(=O)N1CCN(CC(O)COc2ccccc2C(C)CC)CC1 (stereo not given),active: 32.4%
15,CCN(CCCNC(=O)CSc1cc(=O)n(CC)c2ccccc12)c1ccccc1,-2.37%
16,Cc1ccccc1NC(=O)CSC1=C(C#N)C(c2ccsc2)CC(=O)N1 (stereo not given),active: 36.7%
17,CCN(CC)CCOc1c(C)cccc1Cl,active: 62%
18,Cc1ccc(NC(=O)C2CCCCC2)cc1C,active: 36.2%
19,CCc1ccc(NC(=O)Nc2cn(C)c(=O)c3ccccc23)cc1,14.9%
20,COC(=O)C1=C(C)NC(=O)NC1c1cn(-c2ccccc2)nc1-c1ccc(OC)c(Br)c1 (stereo not given),10.8%

row,SMILES,inhibition
1,O=c1oc2cc(O)ccc2cc1-c1nc(-c2ccc(Cl)c(Cl)c2)cs1,4.2%
2,CCCn1c(COc2cccc(C)c2)nc2ccccc21,-22.9%
3,CCc1sc(Nc2cccc(Cl)c2)nc1-c1cc2cccc(OC)c2oc1=O,-1.47%
4,Cc1ccc(CN2CCN(c3ccccn3)CC2)s1,active: 93.6%
5,Cc1c(C(=O)OCc2ccccc2)[nH]c2c1C(=O)CC(c1ccc(N(C)C)cc1)C2 (stereo not given),1.52%
6,COc1ccc(NC(=O)CN2C(=O)C(C)(C)c3cc(S(=O)(=O)N4CCCCC4)ccc32)cc1Cl,7.54%
7,Cc1ccc(/C=C/c2onc(C)c2S(=O)(=O)N2CCC(C(=O)Nc3ccc(OC(F)(F)F)cc3)CC2)cc1,23.2%
8,COc1ccc2c(c1)c1c(c(=O)n(-c3ccccc3C)c(=O)n1CC(N)=O)n2C,14.6%
9,CCCN(CCC)C(=O)Cn1c(=O)n(CCCCCC(=O)Nc2ccccc2)c(=O)c2sccc21,0.864%
10,Cc1ccc(CNC(=O)CCc2c(C)nc3c(-c4ccc(F)cc4)c(C)nn3c2C)cc1,-12.3%
11,COC(=O)c1ccc(NC(=O)Cn2ccn3nc(-c4ccc(OC)cc4)cc3c2=O)cc1,1.68%
12,Cc1cccc(OCC(=O)Nc2cccc(C(=O)OCc3cc(=O)n4nc(C(C)C)sc4n3)c2)c1,12.5%
13,COc1cc(C(=O)N2CCNC(=O)C2CC(=O)Nc2ccc(C)c(C)c2)cc(OC)c1OC (stereo not given),-9.65%
14,CCCCNc1nc2c(-c3cccc(C)c3)nnn2c2ccccc12,-2.72%
15,CCN1CCc2c(sc(NC(=O)c3ccc(S(=O)(=O)N(C)C4CCCCC4)cc3)c2C(N)=O)C1,-6.85%
16,CC(=O)O[C@]1(C(C)=O)CC[C@H]2[C@@H]3C=C(Cl)C4=CC(=O)[C@@H]5C[C@@H]5[C@]4(C)[C@H]3CC[C@@]21C,active: 39.6%
17,O=C(/C=C\c1ccc2c(c1)OCO2)NC1CC(=O)N(c2ccccc2)C1 (stereo not given),5.09%
18,CSc1ccc(CNC(=O)Cn2c(-c3cccs3)cc3cc(F)ccc32)cc1,11.8%
19,CC1Cc2cc(S(=O)(=O)CCC(=O)Nc3ccc(F)cc3)ccc2N1C(=O)C1CC1 (stereo not given),-6.08%
20,COc1cc2ccccc2cc1C(=O)OCC(=O)c1c(N)n(C)c(=O)n(C)c1=O,active: 52.1%
